This is one part of the list.
Tests used:
Assay in all cases: glycan array binding signal (z-score within array); higher = stronger binding
Details in all cases: glycan notation: IUPAC condensed, linker removed
[1] = target: Fuc(a1-2)Gal(b1-4)GlcNAc(b1-3)Gal(b1-4)GlcNAc(b1-3)Gal(b1-4)GlcNAc
Method in brief: (§1)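 Negative Z-scores can be read as non-binding. The Z-score is calculated within each array and then averaged across arrays of one protein sequence at different concentrations or buffers and across linkers. Arrays, 3228 in all, were curated from the Consortium for Functional Glycomics database and kept only where the protein sequence was available.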

[2] = target: Fuc(a1-2)Gal(b1-4)GlcNAc(b1-3)GalNAc
Method in brief: as §1

[3] = target: Fuc(a1-2)Gal(b1-4)GlcNAc(b1-3)[Fuc(a1-2)Gal(b1-4)GlcNAc(b1-6)]GalNAc
Method in brief: as §1

[4] = target: Fuc(a1-2)Gal(b1-4)GlcNAc(b1-3)[Fuc(a1-3)[Gal(b1-4)]GlcNAc(b1-6)]Gal(b1-4)Glc
Method in brief: as §1

[5] = target: Fuc(a1-2)Gal(b1-4)GlcNAc(b1-6)GalNAc
Method in brief: as §1

[6] = target: Fuc(a1-2)Gal(b1-4)GlcNAc6S
Method in brief: as §1

[7] = target: Fuc(a1-2)Gal(b1-4)[Fuc(a1-3)]GlcNAc
Method in brief: as §1

[8] = target: Fuc(a1-2)Gal(b1-4)[Fuc(a1-3)]GlcNAc(b1-2)Man(a1-3)[Fuc(a1-2)Gal(b1-4)[Fuc(a1-3)]GlcNAc(b1-2)Man(a1-6)]Man(b1-4)GlcNAc(b1-4)[Fuc(a1-6)]GlcNAc
Method in brief: as §1

[9] = target: Fuc(a1-2)Gal(b1-4)[Fuc(a1-3)]GlcNAc(b1-2)[Fuc(a1-2)Gal(b1-4)[Fuc(a1-3)]GlcNAc(b1-4)]Man(a1-3)[Fuc(a1-2)Gal(b1-4)[Fuc(a1-3)]GlcNAc(b1-2)Man(a1-6)]Man(b1-4)GlcNAc(b1-4)GlcNAc
Method in brief: as §1

[10] = target: Fuc(a1-2)Gal(b1-4)[Fuc(a1-3)]GlcNAc(b1-3)Gal(b1-4)[Fuc(a1-3)]GlcNAc
Method in brief: as §1

[11] = target: Fuc(a1-2)Gal(b1-4)[Fuc(a1-3)]GlcNAc(b1-3)Gal(b1-4)[Fuc(a1-3)]GlcNAc(b1-3)Gal(b1-4)[Fuc(a1-3)]GlcNAc
Method in brief: as §1

[12] = target: Fuc(a1-2)Gal(b1-4)[Fuc(a1-3)]GlcNAc(b1-3)GalNAc
Method in brief: as §1

[13] = target: Fuc(a1-2)Gal(b1-4)[Fuc(a1-3)]GlcNAc(b1-3)[Neu5Ac(a2-6)Gal(b1-4)GlcNAc(b1-6)]Gal(b1-4)Glc
Method in brief: as §1

[14] = target: Fuc(a1-2)Gal3S(b1-4)GlcNAc
Method in brief: as §1

[15] = target: Fuc(a1-2)Gal6S(b1-3)GlcNAc
Method in brief: as §1

[16] = target: Fuc(a1-2)Gal6S(b1-3)GlcNAc6S
Method in brief: as §1

Fuc(a1-2)Gal6S(b1-4)Glc = target: Fuc(a1-2)Gal6S(b1-4)Glc
Method in brief: as §1

[17] = target: Fuc(a1-2)Gal6S(b1-4)Glc6S
Method in brief: as §1

Fuc(a1-2)[Gal(a1-3)]Gal = target: Fuc(a1-2)[Gal(a1-3)]Gal
Method in brief: as §1

[18] = target: Fuc(a1-2)[Gal(a1-3)]Gal(b1-3)GalNAc
Method in brief: as §1

[19] = target: Fuc(a1-2)[Gal(a1-3)]Gal(b1-3)GalNAc(b1-3)Gal(a1-4)Gal(b1-4)Glc
Method in brief: as §1

[20] = target: Fuc(a1-2)[Gal(a1-3)]Gal(b1-3)GlcNAc
Method in brief: as §1

[21] = target: Fuc(a1-2)[Gal(a1-3)]Gal(b1-3)GlcNAc(b1-2)Man(a1-3)[Fuc(a1-2)[Gal(a1-3)]Gal(b1-3)GlcNAc(b1-2)Man(a1-6)]Man(b1-4)GlcNAc(b1-4)GlcNAc
Method in brief: as §1

[22] = target: Fuc(a1-2)[Gal(a1-3)]Gal(b1-3)GlcNAc(b1-2)Man(a1-3)[Fuc(a1-2)[Gal(a1-3)]Gal(b1-3)GlcNAc(b1-2)Man(a1-6)]Man(b1-4)GlcNAc(b1-4)[Fuc(a1-6)]GlcNAc
Method in brief: as §1

[23] = target: Fuc(a1-2)[Gal(a1-3)]Gal(b1-3)GlcNAc(b1-3)GalNAc
Method in brief: as §1

[24] = target: Fuc(a1-2)[Gal(a1-3)]Gal(b1-3)GlcNAc(b1-6)GalNAc
Method in brief: as §1

[25] = target: Fuc(a1-2)[Gal(a1-3)]Gal(b1-4)Glc
Method in brief: as §1

[26] = target: Fuc(a1-2)[Gal(a1-3)]Gal(b1-4)GlcNAc
Method in brief: as §1

[27] = target: Fuc(a1-2)[Gal(a1-3)]Gal(b1-4)GlcNAc(b1-2)Man
Method in brief: as §1

[28] = target: Fuc(a1-2)[Gal(a1-3)]Gal(b1-4)GlcNAc(b1-2)Man(a1-3)[Fuc(a1-2)[Gal(a1-3)]Gal(b1-4)GlcNAc(b1-2)Man(a1-6)]Man(b1-4)GlcNAc(b1-4)GlcNAc
Method in brief: as §1

B1: GS13455A-bfa-343-25-343 (Bacteroides fragilis) (protein)
chain: KDEIQIVDQDTSWQMDNKYIEEDIREQLGIDPFTDLVYLGYYGNPYTQLEAINDLVNTTLVGKNELSFKVKVTKPYKEDIKVNLMKEDKLVTDFPEMAEGIPLFPSENCTFEGGVLKAGELETTVKLTLKDVEKLNNLSGYVMAIKLTMEGSHEHLAIARTRSSYFVKLNLSIRLDNIDSSNKKIEGKGFNKEISFKSDIRPDKLGSLNDGNFTANNWYTSNANNYLTIILPEKQSLKGFRLDTNTSPSGSYMLKSCRVMVETPDGNWVNHGVFDRKSMDGIAYISFKKPVECTKVRFENMMAFNGRFSVDVNEVTAFR
B1 was tested. Which “glycan array binding signal (z-score)” value [1] did it give?
Its value is 0.02.

And the “glycan array binding signal (z-score)” value [2]?
The value was -0.221.

And the “glycan array binding signal (z-score)” value [3]?
The value was -0.235.

What about the “glycan array binding signal (z-score)” value [4] of the same binder?
The value was -0.35.

And the “glycan array binding signal (z-score)” value [5]?
The value was 0.14.

And the “glycan array binding signal (z-score)” value [6]?
Its value is 0.165.

And the “glycan array binding signal (z-score)” value [7]?
The value was -0.329.

What about the “glycan array binding signal (z-score)” value [8] of the same binder?
The value was 1.01.

And the “glycan array binding signal (z-score)” value [9]?
The value was -0.141.

What about the “glycan array binding signal (z-score)” value [10] of the same binder?
Its value is -0.292.

And the “glycan array binding signal (z-score)” value [11]?
Its value is 0.186.

What about the “glycan array binding signal (z-score)” value [12] of the same binder?
The value was 1.05.

And the “glycan array binding signal (z-score)” value [13]?
Its value is -0.309.

What about the “glycan array binding signal (z-score)” value [14] of the same binder?
The value was -0.268.

What about the “glycan array binding signal (z-score)” value [15] of the same binder?
Its value is 0.046.

And the “glycan array binding signal (z-score)” value [16]?
The value was -0.073.

What about the “glycan array binding signal (z-score)” value (Fuc(a1-2)Gal6S(b1-4)Glc) of the same binder?
The value was -0.133.

And the “glycan array binding signal (z-score)” value [17]?
The value was 0.254.

What about the “glycan array binding signal (z-score)” value (Fuc(a1-2)[Gal(a1-3)]Gal) of the same binder?
Its value is 0.254.

What about the “glycan array binding signal (z-score)” value [18] of the same binder?
Its value is -0.263.

And the “glycan array binding signal (z-score)” value [19]?
The value was -0.182.

What about the “glycan array binding signal (z-score)” value [20] of the same binder?
Its value is 0.31.

What about the “glycan array binding signal (z-score)” value [21] of the same binder?
Its value is -0.738.

And the “glycan array binding signal (z-score)” value [22]?
Its value is -0.117.

And the “glycan array binding signal (z-score)” value [23]?
The value was -0.237.

And the “glycan array binding signal (z-score)” value [24]?
The value was 0.925.

What about the “glycan array binding signal (z-score)” value [25] of the same binder?
The value was -0.212.

And the “glycan array binding signal (z-score)” value [26]?
The value was 0.862.

And the “glycan array binding signal (z-score)” value [27]?
Its value is 0.072.

What about the “glycan array binding signal (z-score)” value [28] of the same binder?
The value was -0.881.
